The supplement of paper PMC10338343
± gives the standard deviation. The entries are a selection whose mix differs from that of the whole data set.

test system: MIWI (PIWIL1) piRISC loaded with piRNA #1 (30 nt); assay: pre-steady-state target cleavage rate (min^-1); MIWI and MILI are mouse PIWI proteins and EfPiwi is from a freshwater sponge; tags in brackets are library labels; higher = faster piRNA-guided slicing of the target; settings: guide: piRNA #1 5'p-UGAGGUAGUAGGUUGUAUAGUAUCCAGAGG; auxiliary factor: 500 nM mouse GTSF1
Method in brief: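 A transcribed, DNA-blocked target RNA library […] was incubated at 33 °C for 0–8 or 0–960 min with 1 nM active affinity-purified piRISC carrying one synthetic guide, in HEPES–potassium acetate buffer with or without 500 nM GTSF1 partner protein. Uncleaved targets were then sequenced and normalised to depth and to weakly complementary targets. Data from three trials were pooled, with k3 capped at 0.0001 min^-1, and a burst-and-steady-state fit yielded the pre-steady-state cleavage rate.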
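Also: 1 nM active piRISC with 0.1 nM target library at 33 °C single turnover.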

Going from GGAGACCUUACUAUACUACCUACUACCUGA to GGAGACGUAACUAUACAACCUACUACCUCA, the “pre-steady-state target cleavage rate” value rises from 0.247 ± 0.031 to 1.39 ± 0.11.

Going from GCUCUGGAUACUAUACAACCUACUUGCUCA to GGAGUGGAUACAAUACAACCUACUAGCUCA, the “pre-steady-state target cleavage rate” value falls from 0.942 ± 0.12 to 0.177 ± 0.031.

Going from GGAGACCUUACUUAACAACCUACUACCUCA to GGUCUGGAAACUAUACAAGCUACUACCUCA, the “pre-steady-state target cleavage rate” value rises from 0.0631 ± 0.011 to 1.1 ± 0.058.

First: CCUCUGCUAACUAUACAACCUACUACCUCA
Second: GGAGACCUAUGAUAUGAACCCACUACCUCA
The “pre-steady-state target cleavage rate” value of the first is higher: 1.86 ± 0.12 for the first, under 0.0001 for the second.

Compared with GGAGACCUAAACUAUACAACCUACUACCUCA, GGAGAGGAUACUAAACAACCUACUACCUCA is higher in “pre-steady-state target cleavage rate” value: 1.19 ± 0.11 for the first, 1.38 ± 0.066 for the second.

Compared with GGAGACCUAUCGUAUACAACCUACUACCUCA, GGAGACCUUUCUAUUCAACCUACUACCUCA is higher in “pre-steady-state target cleavage rate” value: 0.0738 ± 0.012 for the first, 0.369 ± 0.043 for the second.

Compared with GGAGUGGAUACUAUACAACCUACCUACCUCA, GGUCUGGAUACUAUACAACCUACUACCUAA is lower in “pre-steady-state target cleavage rate” value: 1.08 ± 0.076 for the first, 0.778 ± 0.079 for the second.

Compared with GGAGUGGAUACUAUACAACCUACUACUCA, CCUGUGGAUACUAAACAACCUACUACCUCA is higher in “pre-steady-state target cleavage rate” value: 0.185 ± 0.028 for the first, 1.92 ± 0.12 for the second.

First: CCUCUGGAUACUAUACAUGCUACUACCUCA
Second: GGAGACCAUACUAUACAACCUAGUACCUGA
The “pre-steady-state target cleavage rate” value of the first is higher: 1.14 ± 0.068 for the first, 0.0113 ± 0.0053 for the second.

Compared with GGUCUGGAUAGUAUUCAACCUACUACCUCA, GGAGACGAUACUAUACUACCUAGUACCUCA is lower in “pre-steady-state target cleavage rate” value: 0.768 ± 0.067 for the first, 0.315 ± 0.04 for the second.

Compared with GGAGAGGUUACUAUACAACCUACAACCUCA, GGAGACCAUACUCUACAACCUACUACCUCA is higher in “pre-steady-state target cleavage rate” value: 0.405 ± 0.056 for the first, 1.24 ± 0.08 for the second.

Compared with GGAGACCAUACUAUACAACCAACUACCACA, GGACUGGAUACUAUAGAAGCUACUACCUCA is higher in “pre-steady-state target cleavage rate” value: 0.114 ± 0.0095 for the first, 0.816 ± 0.05 for the second.

First: GGACUGGAUACUAUACUACCUACUAGCUCA
Second: GGAGAGGUUUCUAUACAACCUACUACCUCA
The “pre-steady-state target cleavage rate” value of the first is lower: 0.234 ± 0.037 for the first, 1.32 ± 0.076 for the second.

Compared with GGAGACCUAAGUAUACAACCUACUACGUCA, GGAGAGGAAACUAUACAACCUAGUACCUCA is higher in “pre-steady-state target cleavage rate” value: 0.0708 ± 0.016 for the first, 0.162 ± 0.037 for the second.

Going from GGAGACCUAUGAUAUCUACCUACUUCCUCA to GGUCUGGAUGACUAUACAACCUACUACCUCA, the “pre-steady-state target cleavage rate” value rises from under 0.0001 to 1.16 ± 0.099.

Going from GGAGUGGAUCACUAUACAACCUACUACCUCA to GGAGACGAUACUAUACUACCUACUACGUCA, the “pre-steady-state target cleavage rate” value falls from 1.32 ± 0.15 to 0.833 ± 0.074.

GGAGACCUAUCUAUGCAACCUACUACCUCA and GGAGACCUAACUAUACAACCUACUAGCCUCA are within error of each other in “pre-steady-state target cleavage rate” value: 0.706 ± 0.071 for the first, 0.597 ± 0.051 for the second.

Going from GGAGACCUAUGAUAUGUUCCUACCUACCUCA to GGAGACGUUACUUUACAACCUACUACCUCA, the “pre-steady-state target cleavage rate” value rises from under 0.0001 to 1.01 ± 0.1.

First: GGAGACCAUUCUAUACAAGCUACUACCUCA
Second: GGAGACCAUACUAAACUACCUACUACCUCA
The “pre-steady-state target cleavage rate” value of the first is higher: 0.688 ± 0.048 for the first, 0.13 ± 0.017 for the second.

First: GGAGACCUAACUAUACAACCUACAACCUCA
Second: GGACAGGAUACUAUACAACCUACUACCUCA
The “pre-steady-state target cleavage rate” value of the first is lower: 0.378 ± 0.047 for the first, 1.73 ± 0.094 for the second.
